# Assay results: publication PMC4336329 (PLoS ONE, 2015)
# The campaign covered roughly 310,000 compounds. About 2,200 (0.71%) showed an effect of 50% or more. The effect is printed as a negative number. Some of the results follow.
# Biological target: human ether-à-go-go-related gene (hERG) potassium channel (human, UniProt Q12809)
# Assay: primary screen, population patch clamp on CHO cells stably expressing hERG
# human ether-à-go-go-related gene (hERG) potassium channel, sequence (Q12809 whole entry, looked up): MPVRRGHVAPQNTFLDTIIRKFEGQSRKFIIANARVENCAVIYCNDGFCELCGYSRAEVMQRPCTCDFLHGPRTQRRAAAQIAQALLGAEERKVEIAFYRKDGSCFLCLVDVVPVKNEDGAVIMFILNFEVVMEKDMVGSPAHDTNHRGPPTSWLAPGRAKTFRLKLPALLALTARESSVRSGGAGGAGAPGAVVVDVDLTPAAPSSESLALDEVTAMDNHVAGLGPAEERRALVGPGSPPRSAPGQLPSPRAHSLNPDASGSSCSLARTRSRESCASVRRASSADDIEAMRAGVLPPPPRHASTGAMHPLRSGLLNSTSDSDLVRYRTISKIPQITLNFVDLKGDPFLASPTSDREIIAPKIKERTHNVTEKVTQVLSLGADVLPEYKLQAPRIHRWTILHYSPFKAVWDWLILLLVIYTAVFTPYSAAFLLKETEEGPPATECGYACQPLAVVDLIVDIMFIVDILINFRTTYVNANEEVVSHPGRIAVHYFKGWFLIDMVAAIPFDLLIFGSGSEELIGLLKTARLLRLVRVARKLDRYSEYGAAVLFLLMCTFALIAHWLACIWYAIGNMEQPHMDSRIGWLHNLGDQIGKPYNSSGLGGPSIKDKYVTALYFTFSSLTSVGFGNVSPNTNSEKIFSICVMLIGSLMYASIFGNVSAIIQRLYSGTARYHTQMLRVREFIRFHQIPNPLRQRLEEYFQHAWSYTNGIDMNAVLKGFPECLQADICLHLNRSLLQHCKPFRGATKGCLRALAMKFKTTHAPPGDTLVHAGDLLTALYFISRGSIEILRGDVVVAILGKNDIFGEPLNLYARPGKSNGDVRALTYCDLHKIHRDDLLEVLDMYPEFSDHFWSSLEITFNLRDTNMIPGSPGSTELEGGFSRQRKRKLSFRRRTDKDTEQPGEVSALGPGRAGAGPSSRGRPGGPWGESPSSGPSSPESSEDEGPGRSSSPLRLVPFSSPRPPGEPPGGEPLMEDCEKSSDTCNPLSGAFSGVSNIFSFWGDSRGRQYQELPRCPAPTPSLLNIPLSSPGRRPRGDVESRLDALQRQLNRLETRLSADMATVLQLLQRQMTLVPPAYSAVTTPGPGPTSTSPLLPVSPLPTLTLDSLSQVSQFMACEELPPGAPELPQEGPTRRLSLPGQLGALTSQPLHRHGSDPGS
row,SMILES,"hERG current change (%, negative = inhibition) at 1uM"
1,Brc1ccccc1Cn1c(-c2cncs2)nc2ccccc21,-2.18%
2,Cn1c(C(=O)N2CCc3ccccc3C2)cc2c(=O)n3ccccc3nc21,1.88%
3,O=S(=O)(c1ccc(Br)cc1)c1nc(-c2ccccc2)oc1NCc1cccnc1,5.78%
4,Cc1cccc(C(=O)Nc2cccc(-c3ccc4nncn4n3)c2)c1,11.5%
5,CC(=O)Nc1ccc(Nc2nc3ccccc3nc2NS(=O)(=O)c2ccccc2)cc1,8.7%
6,CCOc1ccc(NC(=S)N2CCCC2)cc1,10%
7,CC(=O)c1ccc(N2CCN(C(=O)C3CCN(S(=O)(=O)c4cccs4)CC3)CC2)cc1,6.67%
8,Cc1nc2ccccc2n1CC(=O)NN,9.07%
9,Cc1cc2[nH]c(=O)c(=O)[nH]c2cc1S(=O)(=O)NC1CCC(C)CC1 (centres unmarked),12.9%
10,Cc1ccc(-c2nnc(SCC(=O)N/N=C/c3ccccc3C(=O)O)n2-c2ccccc2)cc1,9.94%
11,O=c1c2ccccc2ncn1-c1cccc(Br)c1,7.85%
12,O=S(=O)(c1ccc(Cl)cc1)N1CCN(c2ccc(N3CCOCC3)nn2)CC1,-3.45%
13,CC(C)OC(=O)CC(=O)CSc1nc2c(cc1C#N)CCC2,16.3%
14,O=C(NCc1ccncc1)C(=O)C1C(=O)Nc2ccccc21 (centres unmarked),-3.46%
15,CCOC(=O)c1c(N2C(=O)C=CC2=O)sc(C)c1C,13.5%
16,CCOC(=O)N1CCN(c2ccc(C(C)=O)cc2F)CC1,13.2%
17,COCCNc1nc(-c2cc(C)n(CCc3ccc(OC)cc3)c2C)cs1,3.17%
18,Cc1ccccc1N1C(=O)NC(=O)/C(=C\c2cc(Br)c(N3CCOCC3)o2)C1=O,11.6%
19,O=C1NCCN1CCNS(=O)(=O)c1ccc2ccccc2c1,5.24%
20,O=C(Cc1ccccc1)c1c[nH]c(C(=O)O)c1,28.5%
21,O=C(O)/C=C/C(=O)Nc1nc(-c2ccc3ccccc3c2)cs1,11.3%
22,Cc1cccc(NC(=O)CSCc2c(C)noc2C)c1C,18.9%
23,O=C(c1cccc(Cl)c1)N1CCN(c2ncnc3c2cnn3-c2ccccc2)CC1,9.09%

row,SMILES,"hERG current change (%, negative = inhibition) at 1uM"
1,Cc1[nH]c(=O)[nH]c(=O)c1S(=O)(=O)Nc1cccc([N+](=O)[O-])c1C,11.5%
2,Oc1c(C(Nc2ccccn2)c2cccnc2)cc(Cl)c2cccnc12 (centres unmarked),1.75%
3,COc1ccc(NC(=O)CCC(=O)NCCO)cc1,21.6%
4,CCOC(=O)NC(C(Cl)(Cl)Cl)S(=O)(=O)c1ccccc1 (centres unmarked),7.15%
5,COc1ccc(S(=O)(=O)N2CCOC2CNC(=O)C(=O)NCc2ccc3c(c2)OCO3)cc1OC (centres unmarked),14%
6,O=C1CC(C(=O)NC2CCCCC2)C2(CCCCC2)O1 (centres unmarked),2.41%
7,O=S1(=O)CC(N2CCCCC2)C(N2CCCCC2)C1 (centres unmarked),8.09%
8,CS(=O)(=O)N(CC(=O)Nc1ccc2c(c1)OCO2)Cc1ccc(Cl)cc1,3.91%
9,C/C(N)=C(/C#N)C(=O)COC(=O)c1ccccc1O,4.99%
10,CN1CCOc2cc(S(=O)(=O)Nc3ccc(F)cc3)ccc21,6.06%
11,O=C(Nc1ccccc1)c1ccc(NCCc2ccccc2)c([N+](=O)[O-])c1,14.6%
12,Cc1cccc(-c2nc(CNC(=O)c3ccco3)cs2)c1,-4.2%
13,COc1ccc(N2CC(C(=O)N[C@@H](C)C(=O)NCCc3ccccc3)CC2=O)cc1 (some centres unmarked),15.4%
14,CCCN(CCC)S(=O)(=O)c1ccc(NC(=O)COc2ccccc2)cc1,1.27%
15,COc1ccc(O)c(CN2CCC(n3nccc3NC(=O)CCOc3ccccc3)CC2)c1,-23.8%
16,COc1ccc(-n2c(SCC(=O)Nc3ccc(C(=O)O)cc3)nnc2-c2cccs2)cc1,12.8%
17,Cc1ccccc1C(=O)Nc1ccc(N2CCCCCC2)cc1,15.9%
18,COc1ccc2c(c1)C(NC(=O)C(F)(F)F)CC2=O (centres unmarked),7.68%
19,CCOc1ccc(NC(=O)C(c2ccccn2)N(C(=O)CCl)c2ccc(F)cc2)cc1 (centres unmarked),9.58%
20,CN1CCN(c2ccc(S(=O)(=O)N3CCOCC3)cc2)CC1,15.8%
21,CC(=O)Nc1nonc1C(=O)N1CCC(C)CC1,-1.17%
22,Cc1ccc(N(C(=O)c2csnn2)C(C(=O)NC2CCCCC2)c2ccccn2)c(C)c1 (centres unmarked),9.9%
23,Cc1ccc(NC(=O)CN2C(=O)N/C(=C\c3cccnc3)C2=O)cc1,0.0136%

row,SMILES,"hERG current change (%, negative = inhibition) at 1uM"
1,CN(C)S(=O)(=O)N(CC(=O)Nc1ccccc1)c1ccccc1,-0.556%
2,Cc1ccc2[nH]c3c(=O)n(CCCN4CCN(C)CC4)cnc3c2c1,-12.6%
3,Cc1ccc(CN2CC[C@H]3C=CCc4cccc(c43)C2)cc1,2.13%
4,N#Cc1nc(COc2ccc(Br)cc2)oc1NCCN1CCOCC1,-14.2%
5,CC(=O)NC12CC3CC(C1)CC(C(=O)N1CCN(S(=O)(=O)c4cccc(C(F)(F)F)c4)CC1)(C3)C2,13.8%
6,CN1CCN(NC(=O)CN2C(=O)/C(=C/c3c(Cl)cccc3Cl)SC2=S)CC1,3.52%
7,O=C(NCc1ccc(-c2nc3ccccc3s2)cc1)c1cc2ccccc2o1,7.37%
8,CC(/C=N/NC(=O)Cc1cccn1C)=C\c1ccco1,-4.12%
9,COc1cccc2cc(C(=O)C3=C(O)C(=O)N(Cc4ccco4)C3c3cccnc3)oc12 (centres unmarked),-5.76%
10,Cc1cccc(C(=O)NCCCn2ccnc2)c1C,4.84%
11,Cc1ccc2c3c(c(SCC(=O)Nc4nonc4C)nc2c1)CCCC3,13.6%
12,Cc1ccc(SC(C)C(=O)Nc2ncn[nH]2)cc1 (centres unmarked),-0.0544%
13,COc1ccc(C(=O)NCC(c2ccc3c(c2)OCO3)N2CCN(c3ccc(OC)cc3)CC2)cc1 (centres unmarked),-7.95%
14,C[C@H]1C=C(C(=O)NCc2nc3ccccc3[nH]2)O[C@@H](OCc2ccc(CO)cc2)C1,2.38%
15,CC(=O)c1c(C)[nH]c(C(=O)N2CCCCCC2)c1C,-1.4%
16,C=CCn1c(C(C)NC(=O)c2ccccc2C)n[nH]c1=S (centres unmarked),11.5%
17,CCOc1ccc(-n2ccc(=O)c(C(=O)Nc3ccc(S(=O)(=O)N4CCOCC4)cc3)n2)cc1,12.1%
18,CCc1nnc(NC2=NCCC2)s1,7.88%
19,O=C1c2ccc([N+](=O)[O-])cc2NC(c2ccco2)N1/N=C/c1ccco1 (centres unmarked),11.2%
20,COc1cccc(/C=N/NC(=O)c2cccc([N+](=O)[O-])c2)c1OS(=O)(=O)c1ccc(C)cc1,5.84%
21,O=C(O)CNC1=NCCCCC1,3.16%
22,Cc1ccc(C)c(SCc2noc(C(=O)NCC3CCCO3)c2C(=O)O)c1 (centres unmarked),13%
23,COc1ccc(C(=O)n2cnc(N)n2)cc1,11.4%

row,SMILES,"hERG current change (%, negative = inhibition) at 1uM"
1,COc1ccc(C(=O)NC(C)CCc2ccccc2)c(OC)c1 (centres unmarked),-3.35%
2,CN(Cc1cccc(Cl)c1)C(=O)C1CCN(C(=O)Nc2ccccc2)CC1,-8.1%
3,COC(=O)c1c(O)cc(=O)n2c1CCCCC2,14.1%
4,Cc1c(Br)c(O)c(Br)c(O)c1/C=N/n1c(-c2ccccc2)n[nH]c1=S,16.2%
5,COc1cc(/C=C2\SC(c3ccc(C)cc3)=NC2=O)cc(OC)c1OC,11.2%
6,CC(=O)Nc1ccc(S(=O)(=O)NC(CC(=O)O)c2ccc(OC(C)C)cc2)cc1 (centres unmarked),10.6%
7,COc1cc(OC)c2c(=O)c(OC)c(-c3ccc(OC)c(OC)c3)oc2c1,11.6%
8,C=CCn1c(=NC(=O)CN2C(=O)CCC2=O)sc2cc(S(N)(=O)=O)ccc21,18.5%
9,CCCC(=O)NC(Oc1ccc(Cl)cc1Cl)C(Cl)(Cl)Cl (centres unmarked),20.4%
10,COc1ccc(C)cc1-n1nnnc1SCC(=O)NC1CC1,11.3%
11,O=C(CN(c1ccc(Cl)cc1)S(=O)(=O)c1ccc(Cl)c([N+](=O)[O-])c1)NCCc1ccccc1,10.9%
12,O=C(Nc1ccc2c(c1)C(=O)NC2=O)c1cccc(C(F)(F)F)c1,17%
13,O=C(CN1C(=O)C(=O)N(Cc2ccccc2)C1=O)Nc1cc(Cl)cc(Cl)c1,6.12%
14,O=C(CNS(=O)(=O)c1ccc(F)cc1)N1CCCCCC1,14.6%
15,Cc1ccc(NC(=O)c2cc(-c3cccs3)on2)cc1C,8.88%
16,Cc1nn(-c2nc(-c3ccco3)cc(C(F)(F)F)n2)c(C)c1Cl,3.73%
17,c1ccc(-n2ncc3c(NCCN4CCOCC4)ncnc32)cc1,-8.96%
18,CNC(=S)N(CCCO)Cc1cc2cc3c(cc2[nH]c1=O)OCO3,16.6%
19,O=C(CN1C(=O)c2ccccc2S1(=O)=O)c1ccc(OC(F)F)cc1,-10%
20,COc1ccc(-n2nnc3c(SCC(=O)N4CCCc5ccccc54)ncnc32)cc1,6.31%
